Experimental data taken from article PMC4336329 (PLoS ONE, 2015).
About 14,000 (4.5%) of roughly 310,000 compounds showed an effect of 50% or more. The effect is printed as a negative number. The list shows a part of the results.

Target: human ether-à-go-go-related gene (hERG) potassium channel (human, UniProt Q12809)
Assay: primary screen, population patch clamp on CHO cells stably expressing hERG
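Also: peak tail current of the secondary pulse compared with the same well before compound.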

Sequence of human ether-à-go-go-related gene (hERG) potassium channel (Q12809 whole entry, looked up): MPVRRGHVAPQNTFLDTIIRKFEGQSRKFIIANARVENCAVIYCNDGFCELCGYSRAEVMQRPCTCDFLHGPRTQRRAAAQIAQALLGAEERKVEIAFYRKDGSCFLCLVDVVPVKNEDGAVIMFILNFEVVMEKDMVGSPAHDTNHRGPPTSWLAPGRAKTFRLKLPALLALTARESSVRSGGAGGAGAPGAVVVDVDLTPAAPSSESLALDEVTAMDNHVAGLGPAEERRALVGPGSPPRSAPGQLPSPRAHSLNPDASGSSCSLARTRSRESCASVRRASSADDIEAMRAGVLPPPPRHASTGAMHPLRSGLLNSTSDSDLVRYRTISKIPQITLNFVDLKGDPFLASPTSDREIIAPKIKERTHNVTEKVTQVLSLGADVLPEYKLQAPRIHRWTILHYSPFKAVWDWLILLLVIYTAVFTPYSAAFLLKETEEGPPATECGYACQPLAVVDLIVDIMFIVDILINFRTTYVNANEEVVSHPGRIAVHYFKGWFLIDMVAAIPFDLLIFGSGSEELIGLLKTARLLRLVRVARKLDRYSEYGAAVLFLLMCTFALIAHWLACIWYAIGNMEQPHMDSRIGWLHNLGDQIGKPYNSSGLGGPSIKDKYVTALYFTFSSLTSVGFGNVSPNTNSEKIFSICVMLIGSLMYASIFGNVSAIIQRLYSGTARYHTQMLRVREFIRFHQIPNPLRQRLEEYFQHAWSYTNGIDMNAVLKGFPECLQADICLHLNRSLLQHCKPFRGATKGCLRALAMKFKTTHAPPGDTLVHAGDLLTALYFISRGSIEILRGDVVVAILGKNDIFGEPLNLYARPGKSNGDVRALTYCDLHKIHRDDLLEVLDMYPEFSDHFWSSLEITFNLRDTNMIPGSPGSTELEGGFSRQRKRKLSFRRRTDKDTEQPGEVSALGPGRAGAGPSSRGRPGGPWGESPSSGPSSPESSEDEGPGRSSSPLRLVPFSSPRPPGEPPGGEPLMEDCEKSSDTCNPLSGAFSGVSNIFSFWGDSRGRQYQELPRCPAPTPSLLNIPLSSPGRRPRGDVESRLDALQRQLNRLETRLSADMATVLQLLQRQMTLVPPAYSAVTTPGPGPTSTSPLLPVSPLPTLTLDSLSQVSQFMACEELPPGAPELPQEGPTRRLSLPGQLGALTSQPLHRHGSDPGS

Structure (SMILES)	hERG current change (%, negative = inhibition) at 10uM
COC(=O)C1(Cc2cc(-c3cccnc3)no2)CCN(C(=O)OC(C)(C)C)CC1	-2.42%
NC(=NCCc1ccccc1)NS(=O)(=O)c1ccc2ccccc2c1	5.14%
COc1ccc(C(CNC(=O)c2c(C)nn(Cc3ccc(C)cc3)c2Cl)N2CCOCC2)cc1 (stereo not drawn)	-37.4%
COc1cc(NC(=O)c2cc3c(CO)cnc(C)c3oc2=Nc2cccc(C(N)=O)c2)cc(OC)c1	-22.7%
COCCNC(=O)CSC1=N/C(=C/c2ccc(Cl)c(Cl)c2)C(=O)N1c1ccccc1F	8.35%
O=C(Nc1nnc(-c2ccc3c(c2)OCCO3)o1)c1ccc(Cc2ccccc2)cc1	1.47%
O=c1ccn(Cc2ccc(F)cc2)c2ccnc(C(F)(F)F)c12	-25.9%
Cc1cccc(CN2CCC(C(=O)Nc3ccc(Oc4cccnc4)cc3)CC2)c1	-14%
COc1nc(N(C)C)nc(-n2nnc(C(C)=O)c2C)n1	-9.9%
CC(=O)Nc1ccc(-c2nnc(SCc3c(C)cc(C)cc3C)n2C)cc1	4.09%
C/C(CC(=O)NC(C)(C)C)=N\NC(=O)COc1ccc(C)cc1Br	4.28%
COc1ccccc1N(CC(=O)NCCSCc1ccc(C)cc1)S(=O)(=O)c1ccccc1	-4.22%
C=C(C)C1CC=C(C)/C(=N\NC(=O)CCC(=O)Nc2ccc(C)c(C)c2)C1 (stereo not drawn)	7.6%
COP(=O)(OC)C(NC(=O)c1ccc(C)cc1)C(Cl)(Cl)Cl (stereo not drawn)	15.5%
CCS(=O)(=O)N1CCN(C2CCC(c3ccccc3)CC2)CC1.O=C(O)C(=O)O (stereo not drawn)	-17.2%
Clc1ccc(C2C3=C(Nc4ncnn42)c2ccccc2CC3)cc1 (stereo not drawn)	-31.8%
Cc1cccn2cc(-c3ccc(Cl)cc3)nc12	10.8%
Cc1ccccc1-c1ncc(CN2CCC(CO)(CCCc3ccccc3)CC2)cn1	-10.9%
COc1ccc(/C=N/n2c(N)nc(-c3ccccc3)c2-c2ccccc2)cc1	-11.2%
CCCOc1ccc(C2C(C(=O)c3ccc(C)o3)=C(O)C(=O)N2CCCn2ccnc2)cc1 (stereo not drawn)	-13.4%
CCN1CCCC1CNc1ncnc2c1[nH]c1ccc(Cl)cc12 (stereo not drawn)	-77.1%
CCOc1cc(OCC)cc(C(=O)O)c1	2.02%
Nc1c(C=C2C=CC(=O)C=C2)c(=O)nc2sc(CC(=O)N3CCCCC3)nn12	15.6%
COc1cccc(NC(=O)CN(C)C(=O)Cn2cnc3ccccc3c2=O)c1	2.05%
O=S(=O)(c1cccc(F)c1)N1CCN(C(=S)NCC2CCCO2)CC1 (stereo not drawn)	9.15%
CN(C)CCCN(C(=O)CCS(=O)(=O)c1ccccc1)c1nc2cc3c(cc2s1)OCO3.Cl	-60%
CCn1c(SCC(=O)Nc2ccc(NC(=O)c3ccco3)c(OC)c2)nc2ccccc2c1=O	-20%

Structure (SMILES)	hERG current change (%, negative = inhibition) at 10uM
Cc1cc(Oc2ccc(C(C)(C)C)cc2)nc(N2CCOCC2)n1	17.4%
COc1ccc(C2COC(=O)C2=N)c(NC(=O)c2ccccc2)c1 (stereo not drawn)	-9.77%
CCC1=NN2C(=N)/C(=C/c3cc(C)n(-c4ccccc4)c3C)C(=O)N=C2S1	16.2%
COc1ccc(OC)c(-n2c(=S)[nH]c3cc(C(=O)NCCCN4CCCC4=O)ccc3c2=O)c1	22.4%
O=C(c1ccccc1)c1ccc2nc(-c3ccc(NC(=O)c4ccccc4F)cc3)[nH]c2c1	-3.21%
CCNC(=O)c1ccc2c(c1)C1C3CCC(C3)C1C(c1ccccc1)N2 (stereo not drawn)	-5.8%
CCOc1ccc(S(=O)(=O)N2CCOCC2)cc1NC(=O)CSCc1c(C)noc1C	-17.3%
COC(=O)C(NNc1ccc(F)cc1)(NC(=O)c1ccccc1)C(F)(F)F (stereo not drawn)	-3.67%
O=C(CSc1nnnn1-c1ccccc1)c1ccc(O)cc1O	7.63%
Cc1ccc(-c2nc3ncccc3o2)cc1NC(=S)NC(=O)c1ccco1	11.2%
CC(C)(C)[C@@H]1C=C(C(N)=O)O[C@H](OCCCCO)C1	2.58%
COc1cccc(CN(CC(=O)NCc2ccco2)C(=O)CNS(=O)(=O)c2ccccc2)c1	-53.1%
COc1ccc(NC(=O)c2cc(-c3cccs3)on2)c(OC)c1	22.7%
O=C(O)c1ccccc1NS(=O)(=O)c1ccc2c3c(cccc13)C(=O)N2	16.1%
Cc1cccc(C)c1OCC(=O)N/N=C/c1cccn1C	-8.88%
COc1ccc(C(=O)OCCc2ccc(O)cc2)cc1	-7.61%
CC(C)(O)C#Cc1ccc(C(=O)NCc2ccccc2F)cc1	0.639%
CCc1ccc(N2CC(C(=O)Nc3ccc4c(c3)OCO4)CC2=O)cc1 (stereo not drawn)	26.3%
CCN1CCN(Cc2cc(OC)c3c(c2)OCO3)CC1	9.99%
CC(C)(C)NC(=O)NC(=O)CN1CCCc2ccccc21	7.02%
CCNc1nc2[nH]c(=O)c3c(c2s1)OC(N)=C(C#N)C3c1ccc(C)cc1 (stereo not drawn)	1.97%
COc1ccc(C2C3=C(CCCC3=O)Nc3nc(-c4cc(OC)c(OC)c(OC)c4)nn32)cc1OC (stereo not drawn)	-4.12%
Cn1cccc1C(=O)OCC(=O)Nc1ccc2c(c1)CCC2	15.1%
Cc1cccc(Nc2nc(-c3cccs3)cs2)n1	14.7%
CCOC(=O)N1CCN(C(=O)CS(=O)(=O)c2cn(Cc3ccccc3Cl)c3ccccc23)CC1	-1.82%
COc1ccc(-c2cn3cccc(C)c3n2)cc1F	-61.7%
COc1ccc(S(=O)(=O)N2CCOCC2)cc1NC(=O)c1cccc2c(=O)c(C)c(-c3ccccc3)oc12	-32.9%
